The supplement of paper PMC7826260
This is one part of the list. Cleavage of a single-stranded DNA pool by Rep nickase domains was read by sequencing (1 h at 37 °C, 3 µM enzyme); the outer parts of the 90-letter strands are left off. Uncut reads are compared with the no-enzyme pool on a log2 scale; more negative means more cut, near 0 not cut, and no call is made. Reads are scaled to the total; where an enzyme cuts many sequences, the uncut ones exceed 0.

Tests used:
Experiment in all cases: uncleaved DNA left, log2 of reads against the no-enzyme library (log2 ratio); higher = less cleavage (more negative = more Rep cleavage of the k-mer); sequences stand for … in CTCGTCCG…ACCGGAGA
[1] = tested on: T1, Rep nickase domain of Muscovy duck circovirus
T1 sequence (Rep 1-111, printed without the tag): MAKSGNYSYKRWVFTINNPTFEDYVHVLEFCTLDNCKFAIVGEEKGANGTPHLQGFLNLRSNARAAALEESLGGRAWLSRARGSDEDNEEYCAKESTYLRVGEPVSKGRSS
Experimental: (§1)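 A pool of 90-nt single-stranded DNAs with seven random bases just before the constant AC of the nick site (name = the seven bases) was cut by 3 µM recombinant His6-SUMO-tagged Rep nickase domain (300 nM DNA, 50 mM HEPES pH 8.0, 50 mM NaCl, 1 mM MnCl2, 1 h, 37 °C, three replicates). Uncut DNA was amplified and sequenced.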

[2] = tested on: T2, Rep nickase domain of banana bunchy top virus
T2 sequence (Rep 1-94, printed without the tag): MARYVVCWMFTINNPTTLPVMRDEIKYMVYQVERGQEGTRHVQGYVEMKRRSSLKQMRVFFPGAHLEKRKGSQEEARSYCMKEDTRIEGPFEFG
Experimental: as §1

[3] = tested on: T3, Rep nickase domain of cabbage leaf curl virus
T3 sequence (Rep 1-116, printed without the tag): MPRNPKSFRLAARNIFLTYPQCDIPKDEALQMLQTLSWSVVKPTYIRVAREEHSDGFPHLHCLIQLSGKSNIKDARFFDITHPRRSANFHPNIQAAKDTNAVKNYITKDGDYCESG
Experimental: as §1

[4] = tested on: T4, Rep nickase domain of chickpea chlorotic dwarf virus
T4 sequence (Rep 1-124, printed without the tag): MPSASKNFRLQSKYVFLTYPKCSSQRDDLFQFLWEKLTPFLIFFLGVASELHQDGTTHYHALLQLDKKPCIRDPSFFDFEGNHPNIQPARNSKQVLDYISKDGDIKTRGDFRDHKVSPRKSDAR
Experimental: as §1

[5] = tested on: T5, Rep nickase domain of faba bean necrotic yellows virus
T5 sequence (Rep 1-98, printed without the tag): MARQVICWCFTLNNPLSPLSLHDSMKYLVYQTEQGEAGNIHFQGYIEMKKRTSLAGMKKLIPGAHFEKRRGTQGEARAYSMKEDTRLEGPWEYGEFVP
Experimental: as §1

[6] = tested on: T6, Rep nickase domain of maize striate mosaic virus
T6 sequence (Rep 1-117, printed without the tag): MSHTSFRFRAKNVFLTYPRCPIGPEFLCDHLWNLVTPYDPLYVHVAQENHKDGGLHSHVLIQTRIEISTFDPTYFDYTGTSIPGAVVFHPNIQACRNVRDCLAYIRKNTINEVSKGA
Experimental: as §1

[7] = tested on: T7, Rep nickase domain of porcine circovirus 2
T7 sequence (Rep 2-116, printed without the tag): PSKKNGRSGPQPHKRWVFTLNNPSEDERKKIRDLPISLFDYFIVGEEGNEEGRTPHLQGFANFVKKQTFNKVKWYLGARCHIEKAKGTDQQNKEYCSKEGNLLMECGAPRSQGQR
Experimental: as §1

[8] = tested on: T8, Rep nickase domain of tomato golden mosaic virus
T8 sequence (Rep 1-124, printed without the tag): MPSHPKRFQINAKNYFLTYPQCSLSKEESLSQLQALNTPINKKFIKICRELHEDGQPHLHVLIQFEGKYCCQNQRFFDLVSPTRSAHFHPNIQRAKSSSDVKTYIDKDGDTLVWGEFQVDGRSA
Experimental: as §1

[9] = tested on: T9, Rep nickase domain of tomato yellow leaf curl virus
T9 sequence (Rep 1-136, printed without the tag): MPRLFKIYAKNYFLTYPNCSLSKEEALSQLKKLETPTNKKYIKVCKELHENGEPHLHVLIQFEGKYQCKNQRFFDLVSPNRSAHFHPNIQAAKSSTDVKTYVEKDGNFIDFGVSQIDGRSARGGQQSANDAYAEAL
Experimental: as §1

[10] = tested on: T10, Rep nickase domain of wheat dwarf virus
T10 sequence (Rep 1-137, printed without the tag): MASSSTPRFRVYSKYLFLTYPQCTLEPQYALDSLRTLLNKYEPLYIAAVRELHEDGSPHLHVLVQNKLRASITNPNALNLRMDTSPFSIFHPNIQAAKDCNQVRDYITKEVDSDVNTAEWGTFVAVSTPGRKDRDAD
Experimental: as §1

Sequence | uncleaved DNA left (log2) [1] | uncleaved DNA left (log2) [2] | uncleaved DNA left (log2) [3] | uncleaved DNA left (log2) [4] | uncleaved DNA left (log2) [5] | uncleaved DNA left (log2) [6] | uncleaved DNA left (log2) [7] | uncleaved DNA left (log2) [8] | uncleaved DNA left (log2) [9] | uncleaved DNA left (log2) [10]
AAATTGA | 0.111 | 0.078 | -0.437 | -0.685 | 0.0934 | -1.19 | 0.0655 | -0.00259 | 0.0638 | 0.0672
ACACCTA | -0.0578 | -0.0173 | -0.238 | -1.04 | 0.0303 | -0.527 | -0.0273 | -0.0524 | -0.13 | 0.0188
CGAGGGA | -0.0999 | -0.138 | 0.0733 | 0.546 | -0.114 | 0.772 | -0.116 | -0.055 | -0.131 | -0.0211
CGGTACA | 0.204 | 0.00614 | 0.516 | 0.335 | 0.067 | 1.5 | 0.279 | 0.0378 | 0.0888 | 0.225
CAGATGT | 0.0376 | -0.209 | 0.0467 | -0.257 | -0.0911 | 0.0826 | -3.04 | -0.00621 | 0.0322 | 0.00184
TGTGTGG | 0.0664 | -0.0254 | 0.299 | 0.417 | 0.077 | 0.184 | 0.233 | 0.0689 | 0.0826 | 0.0922
ACATCGC | 0.0276 | -0.191 | -0.826 | -0.679 | -0.0896 | -1.29 | 0.0912 | 0.0606 | -0.0915 | -0.119
ACACTTG | 0.0769 | 0.0512 | -0.759 | -0.954 | 0.134 | -0.985 | 0.1 | 0.0449 | 0.0514 | -0.0726
AATTGTC | 0.108 | -0.0352 | -0.537 | -0.675 | 0.122 | -1.19 | -0.132 | -0.0986 | 0.0833 | 0.0636
CCGAATC | -0.0359 | 0.0974 | 0.0904 | 0.077 | 0.0168 | -0.396 | -0.0599 | -0.107 | 0.0393 | 0.018
TATATTA | -0.0144 | -0.0895 | -0.103 | -2.11 | 0.0625 | -0.416 | -0.304 | -0.0417 | 0.0917 | -0.0707
TCCTAGC | 0.177 | 0.0258 | -0.138 | -0.379 | 0.0696 | -0.817 | 0.111 | 0.0114 | -0.068 | -0.0522
TTATGAG | -0.0179 | -0.17 | -0.873 | -0.473 | -0.0837 | -1.1 | 0.0935 | -0.133 | -0.12 | -0.124
AGCGGCA | -0.121 | -0.023 | -0.034 | 0.58 | -0.0672 | 1.23 | 0.0379 | 0.0215 | -0.0285 | -0.037
GGTCAGG | 0.155 | 0.216 | 0.549 | 1.35 | -0.00393 | 1.74 | 0.194 | 0.0138 | 0.1 | 0.252
CTATACT | -3.78 | -0.838 | -3.19 | -3.16 | -0.106 | -1.81 | -3.86 | -2.35 | -0.0385 | -1.66
ATGAGTT | 0.0221 | -0.0537 | -0.0119 | -1.35 | -0.0532 | -0.00492 | -0.714 | 0.0937 | -0.041 | -0.023
GGCGCGG | -0.025 | 0.0969 | 0.141 | 0.555 | 0.0894 | 1.53 | 0.117 | 0.116 | -0.153 | -0.0122
GCCATAG | -0.0274 | -0.0329 | -0.752 | -0.472 | 0.0725 | -1.03 | 0.295 | 0.0813 | 0.151 | -0.0681
AGGACTA | 0.0638 | 0.168 | 0.523 | 1.49 | -0.109 | 2.04 | 0.0926 | 0.11 | -0.0594 | 0.151
TTGTGGT | -0.221 | -0.106 | -0.189 | -0.31 | -0.0602 | -0.574 | -2.52 | -0.0408 | 0.0241 | -0.0188
GTTATGG | 0.0849 | 0.0581 | 0.356 | 0.93 | 0.0906 | 1.14 | 0.173 | 0.0104 | 0.0425 | 0.0625
GAGCCAA | 0.0704 | 0.0877 | 0.307 | 0.788 | -0.0881 | 0.823 | -0.161 | -0.00741 | 0.116 | 0.188
GAACCTC | 0.0247 | 0.0702 | 0.254 | 0.282 | 0.0868 | 1.07 | -0.0308 | 0.0335 | 0.121 | 0.149
GTTTGCT | -0.139 | -0.0561 | -0.101 | -0.195 | 0.11 | -0.595 | -0.505 | -0.0313 | 0.00734 | -0.00391
CATATTG | 0.164 | -0.00682 | -0.556 | -0.574 | 0.109 | -1.12 | 0.231 | -0.0391 | -0.0625 | -0.076
TGGATTT | 0.0547 | -0.0532 | 0.529 | 0.512 | -0.0731 | 1.66 | -0.0368 | 0.0133 | -0.0207 | 0.0879
AACAAAG | 0.0363 | -0.0167 | -0.614 | -0.316 | 0.0408 | -1.1 | 0.243 | 0.015 | 0.0383 | -0.167
TCTCTCG | 0.0367 | -0.0936 | -0.836 | -0.506 | 0.127 | -0.879 | 0.0867 | 0.0736 | -0.114 | -0.118
